{"source": "PubChem BioAssay AID504845", "about": "(National Center for Advancing Translational Sciences (NCATS), 2011)", "note": "Screen size: about 390,000 compounds; about 150 (0.038%) were called active. This list was built around the results that the source calls inconclusive (neither active nor inactive); the mix of calls is not that of the screen. Calls follow the shape of the dose curve; as a rule, active = well fitted inhibition curve with a large enough effect; inconclusive = small, poorly fitted or top-dose-only effect; inactive = no such curve, though single readings can be large or run the other way. Potencies beside an inconclusive call are fits to weak or partial responses and may not hold up. Potency is read from the fitted curve at half-maximal effect; tags tell the direction and shape of the fitted curve.", "data": [{"biological_target": "Regulator of G-protein signaling 4 (Homo sapiens) (UniProt P49798)", "sequence (P49798 whole entry, looked up)": "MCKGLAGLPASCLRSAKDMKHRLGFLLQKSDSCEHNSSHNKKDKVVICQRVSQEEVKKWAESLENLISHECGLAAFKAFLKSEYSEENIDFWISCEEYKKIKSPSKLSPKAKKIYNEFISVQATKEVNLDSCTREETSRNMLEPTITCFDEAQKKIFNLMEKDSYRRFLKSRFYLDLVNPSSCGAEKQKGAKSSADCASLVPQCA", "assay": "Inhibitors of Regulator of G Protein Signaling (RGS) 4: qHTS; also: nearly all actives have a fitted effect of over 75% in size", "conditions": "Transcreener GDP fluorescence polarization, RGS4-accelerated GTP hydrolysis; series mostly up to 114 µM", "method_in_brief": "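MLSMR compounds (23 nl, pin-transferred) preincubated 10 min at room temperature with a 500nM (2x) first reagent, then RGS4 at 900nM (2x) plus Transcreener GDP mix added; fluorescence polarization (620/688 nm) read before and after 90 min at 30 °C.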", "values": [{"smiles": "CC(O)(C(=O)Nc1ccc(S(=O)(=O)c2ccccc2)cc1)C(F)(F)F", "note": "(stereo unspecified)", "Potency": "inconclusive: 2.12 µM [inhibitor, partial curve, poor fit]"}, {"smiles": "C=CCNC(=O)C1CCN(S(=O)(=O)c2ccccc2)CC1", "Potency": "inactive"}, {"smiles": "CC1(C)CC(=O)C(C(C#Cc2ccccc2)C2=C(O)CC(C)(C)CC2=O)=C(O)C1", "Potency": "inconclusive: 20 µM [inhibitor, full curve, poor fit]"}, {"smiles": "O=S(=O)(Nc1ccccn1)c1ccc(-n2cccn2)cc1", "Potency": "inconclusive: 79.4 µM [inhibitor, single point]"}, {"smiles": "Cc1cccc(NC(=S)NCCC(c2ccccc2)c2ccccc2)c1", "Potency": "inconclusive: 44.7 µM [inhibitor, partial curve, poor fit]"}, {"smiles": "COc1ccc(C(=O)OCC(=O)c2c(N)n(C)c(=O)n(C)c2=O)cc1OC", "Potency": "inactive"}, {"smiles": "Cc1ccccc1N=Nc1c(O)[nH]c2ccccc12", "Potency": "inconclusive: 70.8 µM [inhibitor, single point]"}, {"smiles": "COc1cc2c(cc1OC)C(c1ccc(-c3ccc(Cl)cc3Cl)o1)=NCC2", "Potency": "inconclusive: 50.1 µM [inhibitor, partial curve, poor fit]"}, {"smiles": "CN(C)c1ccc(CNC(=O)C2CCC(CNc3c(N4CCCCC4)c(=O)c3=O)CC2)cc1", "note": "(stereo unspecified)", "Potency": "inactive"}, {"smiles": "O=C1CCCc2cc3c(cc21)CC1(C3)Cc2cc3c(cc2C1)C(=O)CCC3", "Potency": "inactive"}, {"smiles": "[O-]/C(=C(\\C(=S)Nc1cccc2ccccc12)[n+]1cccc(CO)c1)c1ccc(Cl)s1", "Potency": "inconclusive: 100 µM [inhibitor, partial curve, poor fit]"}, {"smiles": "CC/C(=C(/c1ccccc1)c1ccc(OCC[N+](C)(C)C)cc1)c1ccccc1", "Potency": "inconclusive: 89.1 µM [inhibitor, single point]"}, {"smiles": "COc1ccc(OC)c(NC(=O)Cn2c(CCC(=O)O)ccc2-c2cccs2)c1", "Potency": "inactive"}, {"smiles": "CSCC(NS(=O)(=O)c1ccc(C)cc1)C(=O)O", "note": "(stereo unspecified)", "Potency": "inconclusive: 35.5 µM [inhibitor, partial curve, poor fit]"}, {"smiles": "Cc1cc2nc3c(=O)n(C4CCCCC4)c(=O)[nH]c3nc2cc1N", "Potency": "inconclusive: 28.2 µM [inhibitor, full curve, poor fit]"}, {"smiles": "Cc1ccc(C)n1-c1ccc(C(=O)NN)cc1", "Potency": "inconclusive: 17.8 µM [inhibitor, full curve, poor fit]"}, {"smiles": "COc1ccc(-c2cc(-c3nnc(-c4ccncc4)o3)c3ccccc3n2)cc1", "Potency": "inconclusive: 100 µM [inhibitor, single point]"}, {"smiles": "Cc1ccc(-c2cc(C(=O)N3CCOCC3)c3ccccc3n2)o1", "Potency": "inconclusive: 44.7 µM [inhibitor, partial curve, poor fit]"}, {"smiles": "Nc1nc(Sc2c([N+](=O)[O-])cc(C(F)(F)F)cc2[N+](=O)[O-])n[nH]1", "Potency": "inconclusive: 44.7 µM [inhibitor, partial curve, poor fit]"}, {"smiles": "COC(=O)CSC1=NS(=O)(=O)c2ccccc21", "Potency": "inconclusive: 50.1 µM [inhibitor, partial curve, poor fit]"}, {"smiles": "C(=NOCc1ccccc1)c1ccncc1", "Potency": "inactive"}, {"smiles": "COc1ccc(N2CCN(C(=O)CSc3nnc4c(C)cc5ccc(C)c(C)c5n34)CC2)cc1", "Potency": "inactive"}, {"smiles": "O=C(Nc1ncc([N+](=O)[O-])s1)c1ccc2c(c1)OCO2", "Potency": "inactive"}, {"smiles": "O=C(CCC(=O)OCC(=O)c1cccc([N+](=O)[O-])c1)NC1CCCCC1", "Potency": "inactive"}, {"smiles": "COc1ccc(NC(=S)NCCCCCC(=O)C[N+](=O)[O-])cc1", "Potency": "inconclusive: 89.1 µM [inhibitor, partial curve, poor fit]"}, {"smiles": "O=C(Nc1ccc(-n2nncc2-c2ccco2)cc1)c1cc2ccccc2oc1=O", "Potency": "inconclusive: 89.1 µM [inhibitor, partial curve, poor fit]"}, {"smiles": "Cc1ccc(C)c(OCCn2c(CCNC(=O)C3CCCCC3)nc3ccccc32)c1", "Potency": "inconclusive: 50.1 µM [inhibitor, partial curve, poor fit]"}, {"smiles": "O=C1CC(/C=C/c2ccncc2)=Nc2ccccc2N1", "Potency": "inactive"}, {"smiles": "O=C(CSc1ccc(Cl)cc1)N1CCCC1", "Potency": "inconclusive: 39.8 µM [inhibitor, partial curve, poor fit]"}, {"smiles": "COc1cccc(CN(C)C(=O)c2cc(-c3ccc(F)cc3)nc3ccccc23)c1", "Potency": "inconclusive: 89.1 µM [inhibitor, single point]"}, {"smiles": "Cc1ccccc1C(=O)N1CCC(C(=O)Nc2cccc(S(=O)(=O)N3CCCCC3)c2)CC1", "Potency": "inconclusive: 100 µM [inhibitor, single point]"}, {"smiles": "Cc1ccc(-n2c(=O)c3c(C)c(C)sc3n(CC(=O)NCc3ccccc3)c2=O)cc1C", "Potency": "inconclusive: 31.6 µM [inhibitor, full curve, poor fit]"}, {"smiles": "Cc1ccc(Cl)cc1N1CCN(C(=O)Cn2cnc3sc(C)c(S(=O)(=O)N4CCC(C)CC4)c3c2=O)CC1", "Potency": "inactive"}, {"smiles": "O=C(COc1ccc(S(=O)(=O)NCCc2ccccc2)cc1)N1CCCC1", "Potency": "inconclusive: 79.4 µM [inhibitor, partial curve, poor fit]"}, {"smiles": "S=c1[nH]c2ccc(Cl)cc2s1", "Potency": "inconclusive: 50.1 µM [inhibitor, partial curve, poor fit]"}, {"smiles": "O=c1cc(O)cc(/C=C/c2ccc(O)c(O)c2)o1", "Potency": "inconclusive: 9.46 µM [inhibitor, partial curve]"}, {"smiles": "Cc1ccc(CN2CCCN(C)CC2)c(C)c1", "Potency": "inconclusive: 79.4 µM [inhibitor, partial curve, poor fit]"}, {"smiles": "O=C1NC(=O)/C(=C\\c2ccsc2)N1", "Potency": "inconclusive: 50.1 µM [inhibitor, partial curve, poor fit]"}, {"smiles": "Cc1cc(C)n2cc(CSc3nncn3C)nc2n1", "Potency": "inconclusive: 35.5 µM [inhibitor, full curve, poor fit]"}, {"smiles": "CCOc1cc(/C=N/NC(N)=S)cc(Br)c1OCc1ccccc1C", "Potency": "inconclusive: 70.8 µM [inhibitor, partial curve, poor fit]"}, {"smiles": "CCn1c(CNC(=O)Cc2ccc(OC)cc2)nnc1SCC(=O)c1ccccc1", "Potency": "inconclusive: 17.8 µM [inhibitor, full curve, poor fit]"}]}]}
